Test results: PubChem BioAssay AID1346428 (National Center for Advancing Translational Sciences (NCATS), 2018)
Values joined by “and” are separate entries in the source; they are usually repeats but may differ in a detail not shown here. Equal values may be shown once. Out of some 48,000 compounds screened, about 1,200 (2.5%) were called active. Inconclusive results (about 2%) are left out.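 Rule for the calls: active = activation of at least 60% and not above a set upper limit (about 1 call in 100 departs from these limits); inconclusive = activation of 40% to 60%, or above that upper limit; inactive = activation under 40%.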 The list shows a part of the results.

target: Probable G-protein coupled receptor 32 (Homo sapiens) (UniProt O75388); test: qHTS for Agonists of Human Resolvin D1 Receptor DRV1; conditions: CHO-K1 GPR32 beta-arrestin PathHunter luminescence, 90 min; at 76.9 µM; active compounds read high; zero percent set by DMSO-only wells; note: 0% is about no effect
UniProt O75388, sequence (O75388 whole entry, looked up): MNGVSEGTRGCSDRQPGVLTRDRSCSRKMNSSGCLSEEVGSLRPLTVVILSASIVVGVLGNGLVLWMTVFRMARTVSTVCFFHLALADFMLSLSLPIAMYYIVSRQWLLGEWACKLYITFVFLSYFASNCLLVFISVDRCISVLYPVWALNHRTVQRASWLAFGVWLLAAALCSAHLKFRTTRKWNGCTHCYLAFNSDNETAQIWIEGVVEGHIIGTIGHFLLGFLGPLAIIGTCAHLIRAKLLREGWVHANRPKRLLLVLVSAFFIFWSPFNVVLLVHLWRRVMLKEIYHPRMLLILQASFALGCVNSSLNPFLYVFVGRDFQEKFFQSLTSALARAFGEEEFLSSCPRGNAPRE
Summary of the method: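 Readings come from a cell-based beta-arrestin complementation format: CHO-K1 GPR32 stable cells (2,500/well) treated 90 min with compounds, then beta-Gal substrate added for 1 h before chemiluminescence imaging.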

activation, inactive:
CCN(CC)CCCNC(=O)Cn1nc(C)n2c(cc3sccc32)c1=O -2.19%
CCC(=O)N1c2ccccc2CC1C(=O)NCc1cccc(C)c1 (centres undefined) 8.38%
CCCCc1ccc(NC(=O)Cn2nnc3sc4c(c3c2=O)CCC(C)C4)cc1 (centres undefined) -4.03%
COc1ccc(CCNC(=O)Cn2c(=O)n(-c3ccc(C)c(C)c3)c(=O)c3c(C)c(C)sc32)cc1OC -2.4%
COc1ccc(Cn2nnc3c(=O)[nH]c(C4CCCN(C(=O)c5ccc(C)cc5)C4)nc32)cc1 (centres undefined) 16.7%
Cc1ccc(C(=O)c2oc3ccccc3c2NC(=O)Cc2coc3cc(C)ccc23)cc1 1.05%
Clc1cccc(CSc2nncn3c2cc2sccc23)c1 -23%
COc1ccc(OC)c(C(=O)c2c(N)c(-c3nc(-c4ccc(C)c(C)c4)cs3)c3ccccn23)c1 4.51%
Cc1nn(S(=O)(=O)c2ccccc2)c(C)c1S(=O)(=O)N1CCC(C)CC1 -0.342%
COc1ccc(NC(=O)c2ccc3oc(=O)c(S(=O)(=O)c4ccc(C)cc4)cc3c2)cc1OC -0.477%
CCc1ccccc1NC(=O)Cn1ccn(-c2cc(C)cc(C)c2)c(=O)c1=O -13.9%
CCOc1cccc(C2Nc3ccccc3-c3cc(C)nn32)c1O (centres undefined) -3.07%
CCn1c(=NC(=O)c2ccc3c(c2)OCCO3)sc2c(C)ccc(OC)c21 -6.53%
CCOC(=O)C1(C)C=C(Nc2ccc(Br)cc2)C(=O)N1c1ccccc1 (centres undefined) 0.465%
Cc1ccc(NC(=O)CSc2nc(C)c(Cc3ccccc3)c(=O)[nH]2)cc1C 25.5%
CCCCCCCCCCCCCCCCCCNC(=O)OC1CCN(C(=O)OC[C@H](COC(=O)N(Cc2cccc[n+]2CC)C(=O)c2ccccc2OC)OC)CC1 30.3%
COc1ccc(CCNC(=O)c2ccc3c(c2)CCN3S(C)(=O)=O)cc1 -38.9%
CCN(c1ccccc1)C(CNS(=O)(=O)c1ccccc1)c1ccccc1 (centres undefined) -1.24%
COc1ccc2c(CNCc3ccc(C)o3)c(C(=O)O)n(Cc3ccccc3C)c2c1 -6.37%
CCN(C(=O)C(=O)Nc1ccc2nc3n(c(=O)c2c1)CCCCC3)c1ccc(F)cc1 -0.317%
Cc1ccc(OCC(=O)Nc2ccc(OCc3cc(=O)n4cccc(C)c4n3)cc2)cc1C -0.978%
COc1ccc(CCNC(=O)Cc2c(C)c3c(cc(C)c4c(C)coc43)oc2=O)cc1OC -14.6%
COc1ccc(CC(=O)NC2CC(=O)N(c3cccc(F)c3)C2)cc1 (centres undefined) -5.57%
Cc1ccc(-c2nnc(Nc3ccc(Br)cc3)c3ccccc23)cc1S(=O)(=O)N1CCN(C)CC1 -19.2%
Cc1nn(C(C)C(=O)NC2CCCCC2)c(=O)c2c1sc1ccccc12 (centres undefined) -9.03%
O=C(c1ccc2c(c1)N(Cc1ccccc1)C(=O)c1ccccc1S2(=O)=O)N1CCN(c2ccccc2)CC1 -5.22%
COc1ccc(OC)c(C2NC(=O)NC(C)=C2C(=O)Nc2cc(C)cc(C)c2)c1 (centres undefined) -5.27%
Cc1ccc2sc(N(Cc3cccnc3)C(=O)CCOc3ccccc3)nc2c1C -10.9%
COc1cc(C(=O)CC2(O)C(=O)N(Cc3ccccc3Cl)c3ccccc32)cc(OC)c1OC (centres undefined) -18.7%
O=C(O)CCCCCCCC(=O)O 9.88% and 7.09%
Cc1c(C(=O)N(Cc2ccc(N(C)C)cc2)C2CCS(=O)(=O)C2)oc2ccccc12 (centres undefined) -30.3%
Cc1oc2c(c1C(=O)Nc1ccccc1Br)C1=NCCN1C=N2 -7.22%
Cc1c(Cl)cccc1NC(=O)NCc1c(-n2cccc2)sc2c1CCCC2 -8.16%
Cc1ccc(N(Cc2cccs2)C(=O)Nc2cccc(Cl)c2)cc1 -30.7%
Cc1ccc(Cn2c(=O)n(CC3CCC(C(=O)N4CCC(C)CC4)CC3)c(=O)c3sccc32)cc1 (centres undefined) 1.34%
Cc1ccc(CNC(=O)c2c(O)nc3ccccn3c2=O)cc1 12%
C=CC(N)CCC(=O)O (centres undefined) -2.18%
O=C(NCCc1cccs1)c1ccc(Cn2c(SCc3ccccc3)nc3cccnc32)cc1 -10.1%
COc1cccc(CNC(=O)c2sc3nc4n(c(=O)c3c2C)CCC4)c1 -8.66%
CCOC(=O)c1ccccc1NC(=O)c1cc2c(s1)-c1c(C)cccc1OC2 -12%
COc1ccc(N2CC3=C(C2=O)C(c2ccc(O)c(OC)c2)NC(=O)N3C)cc1 (centres undefined) 13.7%
CCOc1ccccc1NC(=O)Cn1cnc2c1c(=O)n(C)c(=O)n2C -18%
CC(C)OCCCNc1sc(S(=O)(=O)c2ccccc2)nc1S(=O)(=O)c1ccc(Cl)cc1 -16.4%
CCOc1ccccc1NC(=O)CSc1nc2c(oc3ccccc32)c(=O)n1C(C)C -8.22%
COCCCNC(=O)c1cc(-c2ccc(OC)cc2)nc2n[nH]c(-c3ccc(Cl)cc3)c12 -26.4%
COc1ccc(CCNC(=O)c2cnc3ccc(C)cn3c2=O)cc1OC -2.13%
Cn1ncc2c(NCc3ccc(Cl)cc3)ncnc21 6.71%
Cc1c(C(=O)Nc2ccc(F)cc2F)oc2ccc3c(c12)C(=O)CC(C)(C)O3 44.3%
CN(C)c1ccc(CNC(=O)CN2C(=O)c3cccnc3Oc3ccc(Cl)cc32)cc1 -2.13%
Cc1oc2ccc(O)c(CN3CCN(Cc4ccccc4)CC3)c2c1C(=O)Nc1ccccc1 -0.237%
Cc1nn(CC(=O)NCc2cccc(Br)c2)c(=O)c2c1sc1ccccc12 -13%
O=S(=O)(NCCc1nnc2ccc(SCc3ccc(C(F)(F)F)cc3)nn12)c1ccccc1 -15.7%
Cc1cc(C)c(S(=O)(=O)NCCc2cc3cc(C)c(C)cc3[nH]c2=O)c(C)c1 -6.74%
Cc1ccc(Nc2nc3ccc(C)cc3nc2-n2nc(C)cc2C)c(C)c1 6.24%
